Assay results reported in the supplement of paper PMC4604168 (melanoma cell lines).
The list shows a part of the results. Repeats are few or missing, and single values can be far off.

The compounds below were run on A375 (assay: cell count relative to DMSO control; melanoma cells; higher = more viable cells). Settings: library dose: standard library concentration; 72 h.
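Also: cells treated in 1,536-well plates, then fixed and DAPI-stained, with nuclei counted from automated high-throughput microscope images.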

Which cell count does the source give for C#Cc1cccc(Nc2ncnc3cc(OCCOC)c(OCCOC)cc23)c1 [erlotinib] + COc1cc2c(Oc3ccc4[nH]c(C)cc4c3F)ncnc2cc1OCCCN1CCCC1 [cediranib] (first compound 4 µM, partner dose 2 µM) here?
Its cell count is 104%.

For Clc1ccc(Nc2nnc(Cc3ccncc3)c3ccccc23)cc1 [vatalanib] + Cn1c(Nc2ccc(C(F)(F)F)cc2)nc2cc(Oc3ccnc(-c4ncc(C(F)(F)F)[nH]4)c3)ccc21 [CHIR265] (first compound 10 µM, partner dose 0.4 µM), which cell count is on record?
Its cell count is 85.1%.

For Nc1cccc2c1CN(C1CCC(=O)NC1=O)C2=O (stereo not drawn) [lenalidomide] + CO[C@@H]1[C@H](N(C)C(=O)c2ccccc2)C[C@H]2O[C@]1(C)n1c3ccccc3c3c4c(c5c6ccccc6n2c5c31)C(=O)NC4 [Midostaurin] (first compound 5 µM, partner dose 0.4 µM), which cell count is on record?
The cell count was 73.5%.

Which cell count does the source give for Cn1c(Nc2ccc(C(F)(F)F)cc2)nc2cc(Oc3ccnc(-c4ncc(C(F)(F)F)[nH]4)c3)ccc21 + COCC[n+]1c2c(n(Cc3cnccn3)c1C)C(=O)c1ccccc1C2=O [YM155] (first compound 0.4 µM, partner dose 0.002 µM) here?
Its cell count is 64.3%.

With Clc1ccc(Nc2nnc(Cc3ccncc3)c3ccccc23)cc1 [vatalanib] + CN(C)S(=O)(=O)c1ccc2c(c1)/C(=C/c1cc3c([nH]1)CCCC3)C(=O)N2 [SU6656] (first compound 10 µM, partner dose 2 µM) as the compound, how does the cell count read?
The cell count was 104%.

For OCc1c[nH]c2ccccc12 [Indole-3-carbinol] + C[C@@H]1CCN(C(=O)CC#N)C[C@@H]1N(C)c1ncnc2[nH]ccc12 [CP690550] (first compound 4 µM, partner dose 5 µM), which cell count is on record?
Its cell count is 96.1%.

With Clc1ccc(Nc2nnc(Cc3ccncc3)c3ccccc23)cc1 [vatalanib] + COc1cc(Nc2ncc(F)c(Nc3ccc4c(n3)NC(=O)C(C)(C)O4)n2)cc(OC)c1OC [Tamatinib] (first compound 10 µM, partner dose 2 µM) as the compound, how does the cell count read?
The cell count was 67.6%.

Which cell count does the source give for C#Cc1cccc(Nc2ncnc3cc(OCCOC)c(OCCOC)cc23)c1 [erlotinib] + Cc1ccc(NC(=O)c2cccc(N(C)C)c2)cc1NC(=O)c1ccc(O)cc1 [ZM336372] (first compound 4 µM, partner dose 10 µM) here?
The cell count was 89.1%.

For Nc1cccc2c1CN(C1CCC(=O)NC1=O)C2=O (stereo not drawn) [lenalidomide] + CN(C)S(=O)(=O)c1ccc2c(c1)/C(=C/c1cc3c([nH]1)CCCC3)C(=O)N2 [SU6656] (first compound 5 µM, partner dose 2 µM), which cell count is on record?
The cell count was 140%.

Cn1c(Nc2ccc(C(F)(F)F)cc2)nc2cc(Oc3ccnc(-c4ncc(C(F)(F)F)[nH]4)c3)ccc21 + CN(NC(=O)CC(=O)NN(C)C(=S)c1ccccc1)C(=S)c1ccccc1 [STA4783] (first compound 0.4 µM, partner dose 0.03 µM) was tested. Which cell count did it give?
Its cell count is 94.6%.

O=C(CCCCCCC(=O)Nc1ccccc1)NO [vorinostat] + CC1(C)NC(=O)N(c2ccc([N+](=O)[O-])c(C(F)(F)F)c2)C1=O [nilutamide] (first compound 0.4 µM, partner dose 5 µM) was tested. Which cell count did it give?
The cell count was 101%.

Which cell count does the source give for COCC[n+]1c2c(n(Cc3cnccn3)c1C)C(=O)c1ccccc1C2=O + CC(C)(C)c1cnc(CSc2cnc(NC(=O)C3CCNCC3)s2)o1 [SNS-032] (first compound 0.002 µM, partner dose 0.05 µM) here?
Its cell count is 87.8%.

How did the cell count turn out when C#Cc1cccc(Nc2ncnc3cc(OCCOC)c(OCCOC)cc23)c1 [erlotinib] + CO[C@@H]1[C@H](N(C)C(=O)c2ccccc2)C[C@H]2O[C@]1(C)n1c3ccccc3c3c4c(c5c6ccccc6n2c5c31)C(=O)NC4 [Midostaurin] (first compound 4 µM, partner dose 0.4 µM) was run?
The cell count was 82.1%.

For Clc1ccc(Nc2nnc(Cc3ccncc3)c3ccccc23)cc1 [vatalanib] + O=C(Nc1cccc(Cl)c1)Nc1ncc(CCNc2ncnc3ccsc23)s1 [SNS314] (first compound 10 µM, partner dose 0.004 µM), which cell count is on record?
Its cell count is 93.8%.

COCC[n+]1c2c(n(Cc3cnccn3)c1C)C(=O)c1ccccc1C2=O + C[C@@H]1CCN(C(=O)CC#N)C[C@@H]1N(C)c1ncnc2[nH]ccc12 [CP690550] (first compound 0.002 µM, partner dose 5 µM) was tested. Which cell count did it give?
The cell count was 149%.

Which cell count does the source give for Cn1c(Nc2ccc(C(F)(F)F)cc2)nc2cc(Oc3ccnc(-c4ncc(C(F)(F)F)[nH]4)c3)ccc21 + CC1(C)NC(=O)N(c2ccc([N+](=O)[O-])c(C(F)(F)F)c2)C1=O [nilutamide] (first compound 0.4 µM, partner dose 5 µM) here?
The cell count was 75.3%.

For COCC[n+]1c2c(n(Cc3cnccn3)c1C)C(=O)c1ccccc1C2=O + NC(=O)Nc1cc(-c2cccc(F)c2)sc1C(=O)N[C@H]1CCCNC1 [AZD7762] (first compound 0.002 µM, partner dose 0.1 µM), which cell count is on record?
The cell count was 60.6%.

With C#Cc1cccc(Nc2ncnc3cc(OCCOC)c(OCCOC)cc23)c1 [erlotinib] + CN(C)S(=O)(=O)c1ccc2c(c1)/C(=C/c1cc3c([nH]1)CCCC3)C(=O)N2 [SU6656] (first compound 4 µM, partner dose 2 µM) as the compound, how does the cell count read?
The cell count was 120%.

For Cn1c(Nc2ccc(C(F)(F)F)cc2)nc2cc(Oc3ccnc(-c4ncc(C(F)(F)F)[nH]4)c3)ccc21 + COc1cc2c(Oc3ccc4[nH]c(C)cc4c3F)ncnc2cc1OCCCN1CCCC1 [cediranib] (first compound 0.4 µM, partner dose 2 µM), which cell count is on record?
The cell count was 80.6%.

Clc1ccc(Nc2nnc(Cc3ccncc3)c3ccccc23)cc1 [vatalanib] + Cc1ccc(NC(=O)c2cccc(N(C)C)c2)cc1NC(=O)c1ccc(O)cc1 [ZM336372] (first compound 10 µM, partner dose 10 µM) was tested. Which cell count did it give?
The cell count was 88.2%.

For Cn1c(Nc2ccc(C(F)(F)F)cc2)nc2cc(Oc3ccnc(-c4ncc(C(F)(F)F)[nH]4)c3)ccc21 + CC(C)(C)c1cnc(CSc2cnc(NC(=O)C3CCNCC3)s2)o1 [SNS-032] (first compound 0.4 µM, partner dose 0.05 µM), which cell count is on record?
The cell count was 61.7%.

For C#Cc1cccc(Nc2ncnc3cc(OCCOC)c(OCCOC)cc23)c1 [erlotinib] + COc1cc(Nc2ncc(F)c(Nc3ccc4c(n3)NC(=O)C(C)(C)O4)n2)cc(OC)c1OC [Tamatinib] (first compound 4 µM, partner dose 2 µM), which cell count is on record?
Its cell count is 114%.

Which cell count does the source give for Cn1c(Nc2ccc(C(F)(F)F)cc2)nc2cc(Oc3ccnc(-c4ncc(C(F)(F)F)[nH]4)c3)ccc21 + C[C@]1(c2nc3c(C(N)=O)cccc3[nH]2)CCCN1 [Veliparib] (first compound 0.4 µM, partner dose 7 µM) here?
Its cell count is 88.2%.

How did the cell count turn out when COCC[n+]1c2c(n(Cc3cnccn3)c1C)C(=O)c1ccccc1C2=O + CC1(C)NC(=O)N(c2ccc([N+](=O)[O-])c(C(F)(F)F)c2)C1=O [nilutamide] (first compound 0.002 µM, partner dose 5 µM) was run?
The cell count was 80.6%.

Which cell count does the source give for O=C(CCCCCCC(=O)Nc1ccccc1)NO [vorinostat] + CO[C@@H]1[C@H](N(C)C(=O)c2ccccc2)C[C@H]2O[C@]1(C)n1c3ccccc3c3c4c(c5c6ccccc6n2c5c31)C(=O)NC4 [Midostaurin] (first compound 0.4 µM, partner dose 0.4 µM) here?
Its cell count is 53.1%.

How did the cell count turn out when Clc1ccc(Nc2nnc(Cc3ccncc3)c3ccccc23)cc1 [vatalanib] + C=CCn1c(=O)c2cnc(Nc3ccc(N4CCN(C)CC4)cc3)nc2n1-c1cccc(C(C)(C)O)n1 [MK1775] (first compound 10 µM, partner dose 0.1 µM) was run?
Its cell count is 70%.

How did the cell count turn out when OCc1c[nH]c2ccccc12 [Indole-3-carbinol] + OCCn1cc(-c2cnc3nnn(Cc4ccc5ncccc5c4)c3n2)cn1 [PF04217903] (first compound 4 µM, partner dose 5 µM) was run?
The cell count was 98.7%.

How did the cell count turn out when COCC[n+]1c2c(n(Cc3cnccn3)c1C)C(=O)c1ccccc1C2=O + Cn1nnc2c(C(N)=O)ncn2c1=O [temozolomide] (first compound 0.002 µM, partner dose 10 µM) was run?
Its cell count is 72.5%.

For OCc1c[nH]c2ccccc12 [Indole-3-carbinol] + O=C(O)c1ccc(-c2c[nH]c3ncc(-c4ccccc4)cc23)cc1C1CCCC1 [GSK650394] (first compound 4 µM, partner dose 0.8 µM), which cell count is on record?
The cell count was 87.4%.

COCC[n+]1c2c(n(Cc3cnccn3)c1C)C(=O)c1ccccc1C2=O + O=C(Nc1cccc(Cl)c1)Nc1ncc(CCNc2ncnc3ccsc23)s1 [SNS314] (first compound 0.002 µM, partner dose 0.004 µM) was tested. Which cell count did it give?
The cell count was 84.8%.

Which cell count does the source give for C#Cc1cccc(Nc2ncnc3cc(OCCOC)c(OCCOC)cc23)c1 [erlotinib] + Nc1cccc2c1CN(C1CCC(=O)NC1=O)C2=O [lenalidomide] (first compound 4 µM, partner dose 5 µM) here?
The cell count was 127%.

Which cell count does the source give for O=C(CCCCCCC(=O)Nc1ccccc1)NO [vorinostat] + OCCn1cc(-c2cnc3nnn(Cc4ccc5ncccc5c4)c3n2)cn1 [PF04217903] (first compound 0.4 µM, partner dose 5 µM) here?
Its cell count is 124%.

For Nc1cccc2c1CN(C1CCC(=O)NC1=O)C2=O (stereo not drawn) [lenalidomide] + OCCn1cc(-c2cnc3nnn(Cc4ccc5ncccc5c4)c3n2)cn1 [PF04217903] (first compound 5 µM, partner dose 5 µM), which cell count is on record?
Its cell count is 112%.
